The source of these data is publication PMC12422735 (eLife, 2025).

This data set deals with the molecule itself. The experiment in a line: SEC.

B1: N-terminally Myc-tagged Δ40p53α, expressed in H1299 cells (natural protein)
chain: not shown
notes: not shown: Myc, N-terminal, kept
B1: the “stoichiometry N” value is 4.
